# Data taken from the supplement of paper PMC3334620.
# Whole data set: some 33,000 sequences, median “E-score (-0.5 to 0.5)” near -0.011, cut for the highest 2% near 0.28. This is one part of the list.
# Molecular target: T1, Gcr1 (UniProt P07261)
# T1 sequence: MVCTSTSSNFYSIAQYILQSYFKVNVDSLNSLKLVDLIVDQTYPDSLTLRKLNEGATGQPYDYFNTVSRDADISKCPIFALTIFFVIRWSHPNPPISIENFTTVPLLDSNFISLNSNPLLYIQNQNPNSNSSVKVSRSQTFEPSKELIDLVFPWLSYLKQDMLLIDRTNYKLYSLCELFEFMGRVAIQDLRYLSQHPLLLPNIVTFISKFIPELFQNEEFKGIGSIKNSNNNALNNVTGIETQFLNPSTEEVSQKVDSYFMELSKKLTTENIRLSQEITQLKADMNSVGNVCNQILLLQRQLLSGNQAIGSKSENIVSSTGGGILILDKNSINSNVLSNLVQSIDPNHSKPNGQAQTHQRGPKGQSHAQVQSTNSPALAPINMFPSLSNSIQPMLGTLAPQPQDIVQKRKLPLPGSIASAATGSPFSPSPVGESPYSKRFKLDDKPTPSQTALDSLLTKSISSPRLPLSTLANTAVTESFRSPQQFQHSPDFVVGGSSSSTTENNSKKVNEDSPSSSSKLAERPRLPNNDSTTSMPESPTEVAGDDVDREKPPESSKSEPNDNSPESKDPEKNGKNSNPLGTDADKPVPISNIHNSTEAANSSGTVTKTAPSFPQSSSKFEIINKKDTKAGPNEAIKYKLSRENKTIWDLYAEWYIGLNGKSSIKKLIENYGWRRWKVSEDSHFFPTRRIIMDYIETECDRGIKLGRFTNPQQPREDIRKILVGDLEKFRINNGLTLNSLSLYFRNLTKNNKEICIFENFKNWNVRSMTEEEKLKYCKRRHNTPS
# Assay: PBM E-score (8-mer binding enrichment) (E-score (-0.5 to 0.5)); higher = stronger / more preferred TF binding; most listed sequences are background and not binding sites
# Conditions: protein concentration: 100 nM; construct: GST-full length
# How it was run: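 E-scores (a modified Wilcoxon-Mann-Whitney statistic) were assigned by the Universal PBM Analysis Suite to every ungapped eight-base word pooled with its reverse complement. The input came from universal all-10-mer Agilent arrays made double-stranded by primer extension and probed with GST-tagged yeast transcription factors at about 100-200 nM. Fluorescent anti-GST detected bound protein, and masliner normalised the scans.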
row,Sequence,PBM E-score
1,AATCCCCG,0.0568
2,ATCCGGGC,0.248
3,AATTAATT,-0.113
4,AGGACGTG,-0.284
5,GTTCTCGA,-0.0256
6,CTAGTGTC,-0.0816
7,AACTTATT,0.249
8,AACGGTTA,-0.00858
9,ACACTAGC,-0.0237
10,AGACCACT,-0.00966
11,AATAAGTC,-0.175
12,GCCAGCGA,-0.0966
13,CCATCAAC,-0.172
14,AATAGTAT,0.0931
15,CAATGAAG,-0.293
16,CTATGTTC,0.0281
17,AACAGAGA,-0.0971
18,ATGGGGCC,-0.135
19,CATGAAAA,0.217
20,GGGAACCC,0.336
21,CCGGCTCG,0.0641
22,CGACGAGA,-0.328
23,GCCTGTAC,-0.0148
24,CACTTCGC,-0.0699
25,CGGGGGTC,-0.185

row,Sequence,PBM E-score
1,AAATACAA,0.19
2,CGGACACG,0.0963
3,AACTGTAG,-0.147
4,AAGTATCC,0.145
5,CACAACCA,0.0206
6,CCGACTCG,-0.102
7,AGATTTGG,0.0673
8,TACATCAA,0.136
9,AAGCGGCG,0.193
10,AATTCTGC,0.109
11,GAGTGGGC,-0.0425
12,CTATTGCC,-0.193
13,GCAGAGCC,-0.26
14,AACACTGA,-0.0184
15,CACGCTAG,-0.106
16,ACTCCATG,-0.00702
17,CCGAAACC,-0.0279
18,AGAATCAA,0.169
19,AACGGAAG,0.266
20,CCGTTCAA,-0.17
21,GTAATCCA,0.154
22,CGGCGTGC,-0.094
23,GGGCTAAC,-0.244
24,AACTCATC,-0.0389
25,AGCTTGTG,0.00924

row,Sequence,PBM E-score
1,GTTGCCCA,0.146
2,GGATCCCC,0.362
3,CATCTGCA,-0.131
4,CTTGGCCC,0.0663
5,GTGCTACA,-0.119
6,CGCGAATC,0.0843
7,ACCAAGAA,0.0619
8,AAGTAGTA,0.0545
9,ATACTCCC,-0.0419
10,AGGGAGAC,-0.17
11,CCTCTGGC,0.0297
12,ACGTGGAA,0.0214
13,ATTTAGCA,0.115
14,TAGCAGAA,0.11
15,AGGATGAG,-0.056
16,TTCGAAAA,0.0588
17,AGGTTTAA,0.0624
18,CCGGCGAG,-0.161
19,GAGGGAGC,-0.0814
20,CGTCAGTA,-0.17
21,AAAACGAG,-0.0573
22,ACTGCTTG,-0.151
23,ACTACAGA,0.0743
24,ATCCCCTG,0.01
25,TGATATAA,-0.249

row,Sequence,PBM E-score
1,CACGTCCA,-0.0463
2,AGACCTGA,-0.0403
3,TCCTTAGA,0.0718
4,CAGCCGAC,-0.163
5,ATTAGTTA,0.102
6,AAGCCATC,-0.143
7,ATGCTGAA,0.0622
8,GTCATCAC,-0.247
9,GCCTCTCC,0.0384
10,AATATTAG,0.0775
11,ATCGCGCA,-0.0489
12,GAACACAA,-0.0332
13,AGCGCACG,-0.108
14,ACAGTAGG,-0.0472
15,TAGGGAGA,0.026
16,AGGCGTGC,-0.044
17,AGACTATC,-0.146
18,ATTCAGTG,0.0914
19,CACTGACC,-0.258
20,GTAACAAA,-0.00252
21,CTCTCAAC,0.0891
22,GCCTCTTA,0.0777
23,CTTCGGTA,-0.00892
24,AGTTCGAA,-0.0147
25,CGTGAACC,-0.103

row,Sequence,PBM E-score
1,ACCTCACG,-0.0561
2,GGTATCGA,0.00098
3,CTAATGCC,0.0499
4,AGAGGATG,0.315
5,AACACAGG,0.094
6,CATATAAG,0.0899
7,ACCGTATC,-0.0123
8,CTTCGCTA,-0.0659
9,AGACAAAT,0.0622
10,TCAGAGAA,0.0257
11,AGGCTAAG,-0.203
12,CGATTACC,-0.159
13,GGTCGCAC,-0.221
14,CGACAACA,0.00406
15,ATTTTCCA,0.122
16,CATTGACC,-0.187
17,ACTTCCAT,0.145
18,GGGTCCTA,0.211
19,AATACCGC,0.118
20,CCACTAGG,0.287
21,CTTCATAA,0.108
22,GTATCCGA,0.208
23,GAAGTCGC,0.182
24,CCACGGAA,0.127
25,ACGCCTTA,-0.0684

row,Sequence,PBM E-score
1,GAGAAGCC,0.395
2,TGCCCGAA,0.0317
3,GCTGTGCC,-0.187
4,CCAATAAG,0.0215
5,GAGCTACC,0.163
6,GCCTGTCA,0.0994
7,CCTCTGGA,0.00889
8,ACATAAGG,0.0545
9,ATCGGAAT,0.105
10,CGCGCATA,-0.164
11,AGGAACCG,0.139
12,CACGCGAC,-0.0568
13,GGACGGTA,0.0246
14,AGGACGAT,-0.125
15,AGAGCGCT,-0.0601
16,ATCCGACG,-0.15
17,GGTTACTA,0.0616
18,AACACATC,0.03
19,ACACCCTA,-0.021
20,AAGCAACC,0.0616
21,CCGCAGCC,0.223
22,AGTTGAAG,0.0719
23,CACATAAC,-0.154
24,AACTGACG,-0.0047
25,CCGTTCGC,-0.227

row,Sequence,PBM E-score
1,AAGAGATT,0.08
2,TAAGGCTA,-0.0707
3,AAGCAATG,-0.12
4,CCTTTAAA,0.0787
5,ACGTAAAA,0.207
6,GCGACGAA,-0.0345
7,CCCTTGTC,-0.167
8,ATAGTGCC,-0.155
9,GGAGATAA,-0.0396
10,ACCTTACA,0.156
11,CCGCACGC,-0.109
12,GCATCCGC,0.251
13,ACGCCTGC,-0.0545
14,CCTTTTGC,-0.0203
15,ACTTTAAG,0.106
16,GGTCAAAC,-0.054
17,CCCTCGCA,-0.0325
18,GTCGGAAC,-0.0752
19,GCTCAGAA,-0.0813
20,GCAACTGA,-0.162
21,GGGATAAA,-0.0224
22,ACACGCAG,0.323
